Data: the supplement of paper PMC12217912
The other results are listed elsewhere or left out. Sequences were assembled here from the parent chain. Inactive controls read about 0.05.

B1: TEV protease; numbered along this chain (parent)
chain: MGESLFKGPRDYNPISSSICHLTNESDGHTTSLYGIGFGPFIITNKHLFRRNNGTLVVQSLHGVFKVKDTTTLQQHLVDGRDMIIIRMPKDFPPFPQKLKFREPQREERICLVTTNFQTKSMSSMVSDTSCTFPSGDGIFWKHWIQTKDGQCGSPLVSTRDGFIVGIHSASNFTNTNNYFTSVPKNFMELLTNQEAQQWVSGWRLNADSVLWGGHKVFMVKPEEPFQPVKEATQL

Variants of: B1
Experiment: raw area under fraction-flipped curve 0-4 h after induction (AUC4h, not background-subtracted), DNA-recorder readout of cleavage of the substrate (dimensionless); higher = more cleavage of the substrate by the protease variant
Settings: temperature: 34 °C; time window: 0-4 h after rhamnose induction
Description: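 In vivo DNA recorder in E. coli TOP10(DE3) ΔrhaA at 34 °C. Each TEVp single-site mutant (parent TEVp 0) is paired with a single-site variant of the 7-mer TEVs (canonical ENLYFQ|S). The substrate sits between flexible linkers in a Bxb1-sfGFP-TEVs-SsrA fusion, so cleavage stabilises Bxb1 and speeds flipping of a recombination array, read by NGS. The value is the raw area under the fraction-flipped curve over 0-4 h after rhamnose induction (AUC4h), with ≥20 reads per time point. It is not background-subtracted; inactive controls average about 0.047.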
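Also: Bxb1 expression induced with 0.2% (w/v) L-rhamnose at OD600 near 0.5, cultures sampled hourly, flipped fraction per protease–substrate barcode pair counted by paired-end Illumina sequencing.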

Variant	area with substrate CNLYFQS	area with substrate DNLYFQS	area with substrate HNLYFQS	area with substrate LNLYFQS	area with substrate MNLYFQS	area with substrate NNLYFQS	area with substrate PNLYFQS	area with substrate RNLYFQS	area with substrate TNLYFQS	area with substrate WNLYFQS	area with substrate FNLYFQS	area with substrate INLYFQS	area with substrate QNLYFQS	area with substrate YNLYFQS	area with substrate GNLYFQS	area with substrate KNLYFQS	area with substrate VNLYFQS	area with substrate SNLYFQS
I86V	0.0086	0.069	0.0666	0.0535	0.067	0.0562	0.0645	0.0639	0.0549	0.0484	–	–	–	–	–	–	–	–
M88A	0.0829	0.0649	0.0627	0.067	–	–	0.0624	–	–	0.0563	0.0489	0.0641	0.0836	0.0396	–	–	–	–
P89N	0.0518	0.056	0.0543	0.0492	0.0501	0.0646	0.0777	0.0736	–	0.0637	–	0.0531	0.0502	–	0.0553	0.0611	0.0648	–
P89S	0.0526	0.0773	0.0567	–	0.0582	0.066	–	–	0.0649	0.0582	0.0544	–	0.0699	0.052	0.0562	0.0673	–	–
K90W	0.0683	0.0696	–	0.0586	–	–	0.0619	–	0.0555	0.0474	–	0.0593	–	0.0478	–	0.0583	0.0541	0.0594
F92C	0.072	0.0903	0.0691	0.0521	0.0655	–	0.0566	–	0.0587	0.0702	0.055	0.0526	–	0.0559	0.0595	0.075	0.0894	0.0604
P93M	0.0671	0.0885	–	–	–	0.053	–	–	0.0642	0.056	–	0.0514	0.0625	0.0515	0.0526	–	0.0815	0.076
K98A	0.0519	0.0717	0.0773	0.0688	0.0719	0.0614	0.0667	–	–	0.0573	–	0.0744	–	0.0698	–	0.0697	0.0976	0.0722
K98C	0.0881	0.0974	0.0598	0.0542	0.0778	0.0673	0.0672	0.0525	0.0515	0.0748	0.0571	0.0613	–	0.0677	–	0.0613	0.0719	0.0697
K98L	0.0314	0.0902	0.0706	0.0295	0.0627	0.0498	0.0469	–	–	0.0551	0.0611	–	–	–	0.0562	0.0725	–	0.0722
L99D	0.0431	0.0673	0.0374	0.0561	0.0548	0.0712	0.0612	–	–	0.0469	0.0565	–	–	0.065	0.0528	0.079	–	0.0822
R102H	0.0617	0.0541	0.0577	0.0556	0.0472	0.0518	–	–	0.0476	0.0307	0.0684	0.0434	0.0605	0.0752	–	–	0.07	0.0442
P104G	0.0496	0.0508	0.0433	0.0518	0.058	–	0.0658	–	0.0489	0.0468	0.0527	0.0412	0.0479	0.0481	0.0533	–	0.0453	0.0539
Q105D	0.0647	0.0852	0.0711	0.0522	0.073	0.0773	0.0805	–	0.0723	0.0736	0.0646	–	–	0.053	0.0568	0.0748	0.0686	0.0996
Q105R	0.0793	0.0768	0.0746	0.0561	–	–	0.071	–	–	0.0603	0.0662	0.0729	–	0.0623	0.0719	0.0515	0.0704	0.0713
R106A	0.0741	0.0797	0.0557	0.0645	0.0619	–	–	–	0.069	0.0681	–	0.0715	0.0826	0.0513	–	–	–	0.0798
E107Y	0.064	0.078	0.0652	0.0608	0.0613	–	0.0645	–	0.0481	0.0596	0.0642	–	–	0.029	–	–	0.0441	0.0717
E108A	0.0513	0.0678	0.0596	0.0516	0.0609	–	0.0426	–	0.0565	0.0546	–	–	0.057	0.0523	0.0523	0.0632	–	0.0719
R109G	0.0474	0.0746	–	0.0585	0.0593	0.0631	0.0718	–	0.0537	0.0481	0.0626	0.0722	–	–	0.0684	–	–	0.0656
R109I	0.0675	0.0676	0.051	–	0.0602	0.0608	0.0692	–	0.0387	0.0575	–	–	–	0.0622	–	–	0.0738	0.0527
R109Q	0.0793	0.0569	0.0677	0.0681	–	–	–	0.0748	0.066	0.0602	–	0.104	0.0678	–	0.0741	0.0668	–	–
R109W	0.0653	0.102	0.0687	–	–	–	0.0663	–	–	0.0619	–	0.0601	–	–	–	0.0724	0.0683	0.069
I110D	0.0526	0.0533	0.0457	0.0551	–	–	0.0545	0.0589	0.0459	0.0551	–	0.0575	–	0.0508	0.0522	0.0459	0.0587	0.0636
I110G	0.0565	0.0334	0.0574	0.0534	–	0.054	0.0723	–	0.0568	0.0409	–	–	0.0408	0.0475	–	–	–	0.0387
I110T	0.0522	0.0872	0.0538	0.066	0.0567	–	0.0638	–	0.0556	0.0518	–	0.0687	0.0983	0.0573	0.0725	0.0632	0.0609	0.076
C111M	0.064	0.056	0.0762	0.0861	–	0.0705	0.0736	–	0.0629	0.0633	0.0408	0.0366	–	0.0622	–	0.07	0.0639	0.0727
C111S	0.063	0.103	0.0668	0.0633	0.0917	–	0.0686	0.0718	0.0707	0.0554	0.0717	0.0605	0.0678	0.0698	0.0702	0.0656	0.0635	0.0686
